Measured values: the RNAGym collection of RNA variant scans (doi:10.7554/elife.90254)
Read counts are not given, so values of variants with three or more changes are uncertain.

B1: OR4K15 (parent)
chain: GUUAACGGUCAUAGGCCAUGGAAACUAGGAGCACCAUUUCGCUGCCAGUGAAGAAAUGAACAAAGAAAAUCUGGGCCAGGCAGGCAUCAAAAGAAAUAGUCUUGCGCUCAACCAGAAAGUCUGUAAUCAUUUUAAGGGUA

Variants of: B1
Assay: self-cleavage, relative activity (ratio to wild type); higher = more cleavage; in vitro, sequencing; the parent is a self-cleaving ribozyme

Variant | self-cleavage
A5G A33G A64G A69G U102C A117G U139C | 1.26
C16U U38C U72A A91G G138A | 0.07
C32U A67G A116G A118G U130C | 0.07
U43A A55G A134G | 2.41
U19C A56U A69G A78U A140G | 0.33
A94U U100C A118G | 2.28
A52G A59U U132C | 1.45
A4G A33U A63G | 1.85
A66G C107U U131C | 0
A63G U87C A118G | 0.44
U2C U3C A68G | 1.02
U39A U72C A95G | 0.16
A11G U26C A68G | 1.02
A33G U38C U72C A117G | 0.21
A63G A66U U120C | 1.8
A30G A51G A54G | 1.25
A13U A22G U38C | 0.52
U9C A47C A95G G136A | 0.87
U2G A86U A89G A114U | 0.38
C17U A18G U132C | 1.18
A33G A60G A62G A66G A89G A91G A92G A134G | 0.54
A22G A56G U57A A78C | 0.35
U43C U102A U103A | 0.12
A13G A54G U57C U103C | 1.62

Variant | self-cleavage
A24U A64G A92G | 1.15
A63U U103C A118G | 0.72
U9G A67G A91G A134U | 1.06
A23G U49C A62G A90G | 1.78
U49C A90G U108C U127A | 0.01
A18G A60G A86G A91G A110C | 0.17
A54G A91U U100G | 1.77
U2C A22G A23G A60G U102C | 1.36
U2C A23G U70G A92G U122C | 0.57
C35A A51U A118U | 0.59
A18U A22G A56G U122C | 1.19
A11U A51G U122C U131C | 1.08
U37C C40U A91G | 0.74
A33G A51G A52G | 0.55
U2C A47G U122C | 0.46
A47U U57C A135G | 0.53
U2C U12A A22G U39A A59G A110G | 0.12
A63G A89G U132C | 1.85
A11U U43C A67G A140G | 1.19
A18U A52G U100C | 2.03
A30G A78G A114U A117G | 0.05
A4U A54G A55G A59G U132C U139C | 0.45
A11U A24G A62U | 1.58
A59G A60U A82C | 0.14

Variant | self-cleavage
A24U A66G A140G | 0.81
G50A A114G U122A | 0.32
U49C A54U U72C A78G | 0
A30G A55G U70C U131C | 0.72
A23G A69G G137A | 1.22
U2C A36G A52U | 1.43
U37C A90G G119A A126G | 0.58
U43C C71U A86G A126G | 0.17
U9C C17U U37C U108C | 0.05
A36G U43G A118U | 1.16
U26A A27G U103C | 0.79
A24U G79A C107A U120A | 0.01
U38C U39C U49C A55G | 0.23
A18U A67G A114G | 0.16
U43C U49A G104A | 0.04
A4G U43C U130C A140G | 0.9
A91G A96G A111G | 0.02
A36U A90G A135G | 1.55
A55G A95G U102C | 2.07
A22G A24G U38C U57A A59G A69G A86G C105G | 0.08
A33U U37C A69G | 1.08
A18G A54G U87A U120C A125C | 0.74
A24G U120C U127C | 1.04
A5G A62G C76A A135G | 0.16

Variant | self-cleavage
A30U A69G U87C | 0.57
U19C A78U A82G U108C U130C | 0
A24G A78G A82G U102A | 0.19
A52G A54G U87C G106A U122G | 0
G79A A117G U122C | 0.19
U39C A51G A62G U122C | 1.87
A22U A78G A91U | 0.39
U9C A47G A52G U139A | 0.92
A33C A78U A126U | 0.24
A27G U39C G136A | 1.02
A22G A33G U139C | 0.92
A89G A116U U122A A135U | 0.21
A92U A94G U108C U132C | 0
A4G A51U A90G C109U A117U | 0.29
A90G A94G A114G | 0.12
A96G A117G U133C | 2.68
A91G U108C A116G | 0
A64G A118G A135G U139A | 0.24
A18G G83A U122C | 1.37
G8C U9C A64G | 1.77
U12C A66U C88U A89G | 1.18
A69G U72C A117G A118U U122C | 0.05
A24U A68U U108A U122A | 0.03
A24C A30G A90G | 1.33

Variant | self-cleavage
A51U A62G A68G G106A | 0.01
U9A A56G U57C A66U U122C | 0.44
A52G A62U U108C | 0.03
C42G A116G U122C | 0.71
G14A U57A U122C | 0.74
A55C U103C U122A | 0.42
A24G A62G A111G | 0.01
A24G C46U A95G | 2.72
U9C A63G A78U | 0.41
A91G A96G C101U C105U | 0.01
G1A U37C A90U A92G A117G | 1.6
A54G A78U U102C A111G | 0.03
U43C A91G A92G A110G | 0.06
A5G U49C U100C A134C | 1.18
A96G G104A U139C | 0.03
A22G U131C G138U | 0.97
U43A A51G A78G | 0.35
U37C C42U A54G A95U | 0.74
A24G A59G U124C | 0.56
C40U U43C U108C U130G | 0
A60G U100C U122C | 2.47
A5G A30G A63G A64G U103C C105U | 0.08
U9C U87A A129G | 1.12
A27G U38C A67G | 1.78

Variant | self-cleavage
U57A U108C A118G A129G | 0
U9C U12C U43A C85U A89G | 1.56
A30G A55G A60G | 0.73
A64G U122C G137A | 1.32
A68U A78U A118G | 0.04
U19C A36G G104A U122A A134G | 0.01
A5G A18U U37C A62G | 0.27
C17U U39G U49C | 1.12
A23G A92G A134G | 1.54
A18U A22G A51G U127C | 0.34
U39C A59G U131C | 0.89
A24G A94G A114G A116G | 0.06
U9C A18U A60G U133C | 0.78
A11G A36U A59G A111G | 0.07
A5G C105U A116G | 0.08
A52U A67G A118G U139C A140G | 1.31
A68G A69U G73A | 0.17
A89G C113U A134U | 0.06
U3C A5G G7A G29U A68G | 1.17
U2C A30G A36C A129G A135G | 1.14
U39C A82U A116U U139A A140G | 0.04
A62G A67G G115A | 0.01
U43C A96U A111G | 0.01
A5G A96G U103C U130C A135U | 0.61

Variant | self-cleavage
A30C G31A A66G A78U A117G | 0.32
A13G A30G U38C A67G A98G | 1.06
A36C A52C A135G | 2.47
U3C A22G U103C A111U U122C | 0
U9A A78C A94G | 0.3
A69G A82U A96C | 0.03
A11G U72C A111G | 0.07
A22G G58A A63G | 1.23
A69C A96U A110U | 2.15
U12A A22G U102C | 1.46
A54G A60G A78U U120C | 0.14
U49C A95G U133A | 1.41
A18G U38C U132A | 0.51
A55G A68G A86U U87A A92G | 1.66
A4G A22G U38C | 1.55
A30G A36G U122C | 0.75
A82G U100C A116G | 0.38
A47G A63G A64G U131C | 0.72
U49C A56G A95G | 2.6
U26C A62U A117U A126G | 0.56
C16A U39C A78U | 0.08
A18G A24C A67G A117G | 1.78
A56G A82U U102A A116G | 0.18
